# Hit rate of the full screen: of about 310,000 compounds, about 14,000 (4.5%) showed an effect of 50% or more. The effect is printed as a negative number. The list shows a part of the results.
# Biological target: human ether-à-go-go-related gene (hERG) potassium channel (human, UniProt Q12809)
# Assay: primary screen, population patch clamp on CHO cells stably expressing hERG
# 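Note: peak tail current of the secondary pulse compared with the same well before compound.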
# Chain of human ether-à-go-go-related gene (hERG) potassium channel (Q12809 whole entry, looked up): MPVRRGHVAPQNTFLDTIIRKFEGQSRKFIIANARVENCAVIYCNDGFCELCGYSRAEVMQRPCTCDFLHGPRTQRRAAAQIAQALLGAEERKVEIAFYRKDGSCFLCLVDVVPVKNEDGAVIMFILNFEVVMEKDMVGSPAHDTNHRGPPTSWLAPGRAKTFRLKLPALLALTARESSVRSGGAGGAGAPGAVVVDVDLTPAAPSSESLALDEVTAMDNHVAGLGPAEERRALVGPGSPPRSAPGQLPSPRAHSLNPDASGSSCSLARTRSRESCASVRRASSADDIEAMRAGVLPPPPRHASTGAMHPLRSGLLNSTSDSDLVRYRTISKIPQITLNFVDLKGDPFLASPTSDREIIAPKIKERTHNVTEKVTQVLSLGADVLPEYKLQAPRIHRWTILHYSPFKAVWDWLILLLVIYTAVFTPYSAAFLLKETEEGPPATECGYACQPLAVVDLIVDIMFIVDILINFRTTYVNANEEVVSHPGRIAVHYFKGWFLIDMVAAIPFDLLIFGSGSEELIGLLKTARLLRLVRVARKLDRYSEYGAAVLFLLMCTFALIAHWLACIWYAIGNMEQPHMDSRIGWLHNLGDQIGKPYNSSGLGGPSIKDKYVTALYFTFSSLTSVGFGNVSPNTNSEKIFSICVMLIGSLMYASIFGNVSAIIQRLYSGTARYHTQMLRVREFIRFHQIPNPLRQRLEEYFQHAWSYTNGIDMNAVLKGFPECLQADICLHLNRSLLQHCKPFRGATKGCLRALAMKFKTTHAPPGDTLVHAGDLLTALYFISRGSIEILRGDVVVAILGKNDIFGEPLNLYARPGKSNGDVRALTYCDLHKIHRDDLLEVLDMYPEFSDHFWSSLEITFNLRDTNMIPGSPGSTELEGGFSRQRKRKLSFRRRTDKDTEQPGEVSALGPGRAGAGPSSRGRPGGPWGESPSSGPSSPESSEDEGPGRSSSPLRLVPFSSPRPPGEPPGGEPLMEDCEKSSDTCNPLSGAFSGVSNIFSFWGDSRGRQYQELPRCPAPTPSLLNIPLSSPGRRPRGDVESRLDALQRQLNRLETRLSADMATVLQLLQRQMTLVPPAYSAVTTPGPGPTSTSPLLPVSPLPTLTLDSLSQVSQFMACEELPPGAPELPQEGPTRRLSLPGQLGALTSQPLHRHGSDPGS
row,SMILES,"hERG current change (%, negative = inhibition) at 10uM [%]"
1,CCOC(=O)CNC(c1ccccc1)c1cc(Br)ccc1NC(=O)CCN1CCOCC1 (stereo not drawn),-68
2,Cc1cc(OCC(=O)Nc2cccc(S(=O)(=O)NC3=NCCCCC3)c2)ccc1Cl,-24.7
3,O=S(=O)(NCCNS(=O)(=O)c1cccs1)c1cccs1,-3.62
4,Fc1ccc(/C=N/NC(=S)Nc2ccc(Cl)cc2)cc1F,9.62
5,COc1cc(NC(=O)c2ccccc2)c(OC)cc1NC(=O)Cc1ccc(Br)cc1,18.8
6,COc1cccc(NC(=S)NN2CCN(C)CC2)c1,6.84
7,O=C(NC(=S)Nc1cccnc1)c1cc2ccccc2o1,9.86
8,CC(Cc1ccccc1)[n+]1cc(/N=C(\N)[O-])on1 (stereo not drawn),19.3
9,CCOc1ncccc1C(=O)OCC(=O)Nc1cccc(S(N)(=O)=O)c1,14.9
10,O=C(CN1CCC(n2nnc3cc(C(F)(F)F)ccc32)CC1)N1CCc2ccccc21,-19.9
11,CN(C1CCCCC1)S(=O)(=O)c1ccc2c(c1)c(=O)c(C(=O)NCCN1CCCC1)cn2C,-27.7
12,COc1ccc(NC(=S)NNC(=O)OC(C)(C)C)cc1OC,11.1
13,CCOC(=O)c1c(C)c(C(=O)NCCN2CCOCC2)c(C)n1CC,0.0858
14,O=C(COn1nnc2ccccc21)N1CCN(Cc2ccccc2)CC1,2.76
15,O=C(CC12CC3CC(CC(C3)C1)C2)N1CCN(S(=O)(=O)c2cccs2)CC1,-3.18
16,COc1ccc(CNC(=O)C2CCCN(S(=O)(=O)N3CCC(C)CC3)C2)c(OC)c1 (stereo not drawn),37.7
17,CCCCn1c(SCC(=O)NCc2ccco2)nnc1-c1ccoc1C,6.03
18,CCCN(CCC)CCCNC(=O)CNC(=O)c1nn(-c2ccc(OC)cc2)c(=O)c2ccccc12,-20.2
19,COc1cc(-c2nnc(SCc3cccnc3)n2C)cc(OC)c1O,-5.33

row,SMILES,"hERG current change (%, negative = inhibition) at 10uM [%]"
1,O=C(C(Cl)Cl)N1c2ccccc2OCC1c1ccccc1 (stereo not drawn),-7.13
2,COc1ccccc1CN1CC(C(=O)NCc2ccc(N3CCCC3=O)cc2)CCC1=O (stereo not drawn),26.9
3,Cc1cc(SCC2=NNC(=O)C2)c(Cl)cc1Cl,2.95
4,Cc1ccc2c(c1)CC1(CN2C)C(=O)NC(=O)N(c2cc(C)ccc2C)C1=O (stereo not drawn),-0.306
5,CCOc1cc(CNn2cn[nH]c2=S)cc(Cl)c1OCc1ccccc1F,10.8
6,O=C(Nc1ccccc1C(F)(F)F)c1cc(S(=O)(=O)N2CCC3(CC2)OCCO3)ccc1F,-17.1
7,COc1ccc(C2=NCCn3nc4cc([N+](=O)[O-])ccc4c32)cc1,5.07
8,CCN(CC)CCCn1c(SCC(=O)Nc2cccc(F)c2)nnc1-c1ccoc1C,-68.2
9,C/C(=N\Nc1ncc(Cl)cc1Cl)c1ccc(OC(F)F)cc1,-50.2
10,OCC[C@H]1C[C@@H](O)[C@H](O)[C@@]2(CCc3ccccc3O2)O1,11.2
11,O=C(Nc1ccc(F)cc1)C1CC2CCC1C2 (stereo not drawn),5.38
12,CCOc1ccccc1NC(=O)CCCc1nc2ccccc2c(=O)[nH]1,-4.08
13,CC(=O)c1ccc([C@@H]2C[C@]34CN(Cc5cccc(C(F)(F)F)c5)S(=O)(=O)[C@H]3C[C@H]2O4)cc1,-17.3
14,O=C(CNC(=O)c1ccccc1F)NC1CCN(Cc2ccccc2)CC1,4.81
15,COC1(OC)C=CC(=O)C=C1NC(=O)c1ccccc1OC(C)=O,1.61
16,Cc1ccc(-n2c(-c3cc(C)n(C)n3)n[nH]c2=S)cc1,24.2
17,CCCOc1ccc(C(=O)NNC(=S)NC(=O)CC)cc1,23.7
18,NC(=O)CSc1cn(Cc2ccccc2)c2ccccc12,11.3
19,O=C(O)c1cc(C(=O)O)cc(N2C(=O)CSC2=S)c1,15.3

row,SMILES,"hERG current change (%, negative = inhibition) at 10uM [%]"
1,CC1CCN(c2nc3ccccc3nc2C(C#N)C(=O)NC2CCCCC2)CC1 (stereo not drawn),10.1
2,O=C(Nc1ccccc1)/C(=C\c1ccco1)NC(=O)c1ccco1,-6.57
3,C/C(=N\NC(=O)c1cc(C)[nH]n1)c1ccc(-c2ccccc2)cc1,9.64
4,CC1CCc2nc(NC(=O)CCSc3ccccc3)sc2C1 (stereo not drawn),-6.36
5,N#CC(Br)Br,16.2
6,COc1ccc(S(=O)(=O)N2Cc3ccccc3CC2C(=O)N2CCOCC2)cc1OC (stereo not drawn),-18.7
7,Cc1ccc(NC(=O)c2cnccn2)cc1,15.8
8,COCCCn1c(=O)c2sccc2n(Cc2cccc(F)c2)c1=O,4.54
9,Clc1cccc(NCc2ccccc2)n1,-27.9
10,COc1cc(/C=C/C(=O)Nc2ccncc2)cc(OC)c1OC,4.33
11,CCCCCN(CCCCC)C(=O)C(CCC(=O)[O-])NC(=O)c1ccc(Cl)c(Cl)c1.[Na+] (stereo not drawn),2.18
12,COc1ccc(NC(=O)Nc2ccc(Br)c(C)c2)cc1,23.5
13,CC(OC(=O)Cc1n[nH]c(=O)c2ccccc12)C(=O)Nc1ccc(F)cc1 (stereo not drawn),-13.9
14,COc1ccc(C(=O)NCCSc2ccccc2)cc1,-7.47
15,CCN(CC)S(=O)(=O)c1cccc(NC(=O)COC(=O)c2ccc(Br)o2)c1,-18.6
16,CC1CCN(S(=O)(=O)c2ccc(S(=O)(=O)NCc3ccco3)cc2)CC1,2.5
17,CC(=O)Nc1ccc(S(=O)(=O)N(C)CC(=O)OC(C)C(=O)NC2CCCC2)cc1 (stereo not drawn),10.6
18,CC(C)N(C=O)C1(C(=O)NC2CCCCC2)CCCCC1,-1.44
19,Cc1ccc(-c2nc3ccccc3c(=O)n2-c2ccc(O)cc2)cc1,-3.92
